Among all 310,000 compounds or so, about 14,000 (4.5%) showed an effect of 50% or more. The effect is printed as a negative number. The list shows a part of the results.
What follows are compounds tested against human ether-à-go-go-related gene (hERG) potassium channel (human, UniProt Q12809) (assay: primary screen, population patch clamp on CHO cells stably expressing hERG).
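Also: peak tail current of the secondary pulse compared with the same well before compound.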

Sequence of human ether-à-go-go-related gene (hERG) potassium channel (Q12809 whole entry, looked up): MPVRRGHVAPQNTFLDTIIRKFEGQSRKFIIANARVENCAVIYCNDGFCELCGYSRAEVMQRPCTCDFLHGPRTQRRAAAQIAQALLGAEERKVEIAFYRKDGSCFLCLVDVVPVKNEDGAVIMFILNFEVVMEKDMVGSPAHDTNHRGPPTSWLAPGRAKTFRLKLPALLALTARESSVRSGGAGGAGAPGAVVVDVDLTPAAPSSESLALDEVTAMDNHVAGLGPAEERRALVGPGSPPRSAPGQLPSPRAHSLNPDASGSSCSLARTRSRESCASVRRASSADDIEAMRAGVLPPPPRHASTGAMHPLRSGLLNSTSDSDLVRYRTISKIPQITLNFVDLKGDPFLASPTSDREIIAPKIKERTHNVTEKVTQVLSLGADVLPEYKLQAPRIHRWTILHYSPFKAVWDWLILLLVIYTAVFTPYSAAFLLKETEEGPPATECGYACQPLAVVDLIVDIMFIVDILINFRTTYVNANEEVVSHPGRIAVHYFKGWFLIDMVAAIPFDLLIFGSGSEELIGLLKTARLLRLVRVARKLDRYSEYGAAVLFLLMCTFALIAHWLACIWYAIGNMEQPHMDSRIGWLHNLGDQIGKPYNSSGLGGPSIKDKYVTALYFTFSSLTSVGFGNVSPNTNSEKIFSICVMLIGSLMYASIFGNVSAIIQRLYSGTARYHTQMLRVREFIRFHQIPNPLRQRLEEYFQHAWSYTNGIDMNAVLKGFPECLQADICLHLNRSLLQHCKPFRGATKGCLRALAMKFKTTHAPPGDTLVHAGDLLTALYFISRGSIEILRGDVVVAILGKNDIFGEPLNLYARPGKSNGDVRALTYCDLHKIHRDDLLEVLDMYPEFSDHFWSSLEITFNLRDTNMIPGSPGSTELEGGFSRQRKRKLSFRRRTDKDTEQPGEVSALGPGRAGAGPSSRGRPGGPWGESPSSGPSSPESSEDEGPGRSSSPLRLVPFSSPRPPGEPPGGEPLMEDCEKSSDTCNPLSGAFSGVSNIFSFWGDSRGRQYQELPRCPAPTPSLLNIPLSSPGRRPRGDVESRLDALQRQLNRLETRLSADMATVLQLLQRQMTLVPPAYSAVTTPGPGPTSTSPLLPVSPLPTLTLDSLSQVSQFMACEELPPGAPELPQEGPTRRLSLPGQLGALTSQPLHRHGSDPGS

| SMILES | hERG current change (%, negative = inhibition) at 10uM [%] |
| --- | --- |
| N#Cc1c(-c2ccco2)nc(SCC(=O)Nc2ccc(S(N)(=O)=O)cc2)[nH]c1=O | -2.56 |
| CC(=O)Nc1ccc(N2C(=O)c3ccc(C(=O)Nc4nnc(SCc5ccc(F)cc5)s4)cc3C2=O)cc1 | 13.4 |
| Cc1ccc(/C=C2/C(=O)NC(=O)N(CCc3ccc(F)cc3)C2=O)o1 | 5.03 |
| O=C(CNS(=O)(=O)c1cccc(F)c1)OCC(=O)N1CCCC1=O | 0.385 |
| COc1ccc2c(c1)-c1nc(NC(=O)c3cccs3)sc1CC2 | -5.23 |
| O=C1C=C(c2ccccc2)CC(c2cccs2)C1n1cnc([N+](=O)[O-])c1 (centres unmarked) | -21.9 |
| CCOc1ccc(N2C(=O)CC(NCCc3ccncc3)C2=O)cc1 (centres unmarked) | -5.67 |
| Cc1c(Br)c([N+](=O)[O-])nn1C(C)C(=O)N1CCc2ccccc2C1 (centres unmarked) | -13.4 |
| CCCOc1ccc(OCCOCCN2CCc3ccccc3C2)cc1 | -64.7 |
| COc1ccc(S(=O)(=O)N2CCOCC2)cc1NC(=O)Cn1nnc2ccccc2c1=O | -35.7 |
| CS(=O)(=O)N1CCN(c2ccccc2NC(=O)c2ccco2)CC1 | -38.9 |
| CCO[C@@H]1OC(C(=O)N2CCN(Cc3ccc4c(c3)OCO4)CC2)=C[C@H](C)[C@H]1CCCO | -9.45 |
| CC(=O)Nc1cccc(/C(C)=N\NC(=O)c2ccc(Cn3nc([N+](=O)[O-])c(Cl)c3C)o2)c1 | -9.44 |
| COc1ccc(N=C2SC(C(=O)Nc3ccc4c(c3)OCO4)CC(=O)N2C)cc1 (centres unmarked) | 6.04 |
| Cc1ccc(NC(=O)CSc2cn[nH]n2)cc1 | 20.6 |
| Cc1ccccc1OCCCC(=O)Nc1ccc2c(c1)OCO2 | 5.46 |
| CN(Cc1ccccc1)C(=O)COC(=O)c1cc([N+](=O)[O-])ccc1N1CCOCC1 | -56.7 |
| Fc1ccc(-c2n[nH]c(=S)c3ccccc23)cc1 | -2.8 |
| CCN(CC(=O)Nc1ccc2c(c1)OCCO2)C(=O)c1cccc(OCC(C)C)c1 | -15.7 |
| Cc1ccc(NC(=O)Nc2cnccn2)cc1 | 5.11 |
| CCc1ccc(NC(=O)CSc2ccc(-c3ccccn3)nn2)cc1 | 2.69 |
| CCCOc1ccccc1C1CC(=O)Nc2cc3c(cc21)OCO3 (centres unmarked) | -3.8 |
| O=C(Nc1ccc(NC(=O)c2cccs2)cc1)c1ccccc1 | 16.8 |
| O=C(C1CCCCN1S(=O)(=O)c1ccccc1[N+](=O)[O-])N1CCOCC1 (centres unmarked) | 7.87 |
| Cc1[nH]c(C)c(S(=O)(=O)NCCc2ccccc2)c1C(=O)N1CCCC1 | 15.5 |
| COc1ccc(C)cc1NC(=O)CN1CCN(c2ccccn2)CC1 | -11.7 |
| CCN1CCN(C(=O)Cc2ccccc2OC)CC1 | 13.3 |

| SMILES | hERG current change (%, negative = inhibition) at 10uM [%] |
| --- | --- |
| CCOC(=O)/C(C#N)=C1/C=CN(c2ccc(C)cc2)C=N1 | -1.21 |
| COc1ccccc1N(CC(=O)NCC1CCCO1)C(=O)Cn1nnc(-c2cccs2)n1 (centres unmarked) | 7.42 |
| Cc1cccc(NC(=O)CNC(=O)Cc2ccc3c(c2)OCCO3)c1C | 24.2 |
| O=C(CCN=C1NS(=O)(=O)c2ccccc21)OCc1cccc(Cl)c1 | -10.5 |
| CCc1cc2c(=O)c(Oc3ccccc3)c(C)oc2cc1O | -22 |
| COc1cc(OC)cc(C(=O)Nc2cccc3cccnc23)c1 | 28.6 |
| Cc1ccc(N(Cc2ccc(C(=O)Nc3c(C)n(C)n(-c4ccccc4)c3=O)cc2)S(C)(=O)=O)cc1C | 13.8 |
| COC(=O)c1cn(CCOc2ccccc2OC)c2ccccc12 | 0.372 |
| CCc1ccc(C2CC(c3cccc(OC)c3)n3nc(N)nc3N2)cc1 (centres unmarked) | -2.68 |
| COc1ccc(C(=O)Nc2ccc(Oc3ncnc4sc(-c5ccccc5)cc34)cc2)cc1OC | 28 |
| O=C1CC(=O)N(c2ccc(Cl)cc2Cl)C(=O)N1 | 3.87 |
| COc1cccc(N(C(=O)Cn2nnc(-c3ccc(C)o3)n2)C(C(=O)NC2CCCC2)c2ccncc2)c1 (centres unmarked) | 17.2 |
| CN(C)/C=C(\C=N\OCc1ccc(Cl)cc1Cl)C(=O)Nc1ccc(Cl)c(Cl)c1 | 12.4 |
| COc1ccc(-c2cc(C(=O)NCC3CCCO3)on2)cc1OC (centres unmarked) | 0.789 |
| COc1ccc(Nc2nnc(SC(C(=O)Nc3cc(C)ccc3C)c3ccccc3)s2)cc1 (centres unmarked) | 0.191 |
| CC(=O)Nc1ccc(-c2csc(NC(=O)Cc3ccccc3F)n2)cc1 | 10.1 |
| NS(=O)(=O)c1cccc(NC(=O)CCCC2CCCCC2)c1 | -45.3 |
| COc1cccc(NC(=O)C2C3C=CC4(O3)C2C(=O)N(CCN2CCCCC2)C4C(=O)NC2CCCCC2C)c1 (centres unmarked) | 18.6 |
| COc1cc2nc(N(CCCN(C)C)C(=O)c3ccc(C(=O)c4ccccc4)cc3)sc2cc1OC.Cl | -70.4 |
| Cc1sc2nc(COC(=O)c3c(F)cccc3F)[nH]c(=O)c2c1C | 2.34 |
| COc1ccc(CN2CCC(n3nccc3NC(=O)c3cccc(F)c3)CC2)cc1O | -80.4 |
| CC(C)CNc1cc(N2CCCC2)ccc1[N+](=O)[O-] | 0.4 |
| COc1ccc(Cl)cc1NC(=O)CN1CCC(NC(=O)C2CC2)CC1 | -52 |
| CC(=O)c1ccc(S(=O)(=O)Nc2ccc(-n3c(C)nc4ccccc4c3=O)cc2)cc1 | -43.2 |
| O=C(N/N=C/c1ccccc1)c1sccc1OCc1ccc(F)cc1 | 5.25 |
| COC(=O)c1sc(N2C(=O)C(O)=C(C(=O)c3ccc(C)o3)C2c2cccs2)nc1C (centres unmarked) | 10 |

— publication PMC4336329 (PLoS ONE, 2015)
